The values that follow come from patent US12673111B2, “Bifunctional degraders of galactose-deficient immunoglobulins” (priority 2023, dated 2026).

The target of assay [1] is T1, dg-IgA conjugated to Alexa Fluor 594 (Homo sapiens, UniProt P01876+P07306).
T1 construct: prepared from pooled human serum IgA in three enzymatic steps; from tissue; host or cells: pooled human serum IgA, deglycosylated and dye-labelled; added to HEK293 cells transfected with human ASGPR1
Description: ASGPR-dependent uptake assay (dg-IgA endocytosis) in HEK293 (+ASGPR) cells. The assay is classed as cell-based. How it is done:
(§1) A HEK293 bioluminescent cell-based assay was used to assess ASGPR-dependent uptake by cells in vitro.
(§2) Harvest HEK293 (+ASGPR) cells—phosphate-buffered saline rinse 2×.
(§3) Set cells in 40 k/100 μl/well in DMEM+200 μg/mL G418+10% Fetal Bovine Serum grow plus 1% P/S overnight.
(§4) Dilute ⅓ 100 optimum+50 μl sample for six concentrations.
Column 1-6:1.1 ug/mL dg-IgA-594-5 ml (5.5 μL dg-IgA).
(§5) Add 90 μl dg-IgA/IgA mAb or 0 Ab for controls.
(§6) Add 10 μl of step-diluted compounds to the first nine columns and 10 μl optimum to the remaining columns.
(§7) Incubate overnight—Incucyte read @ four hours, twelve hours, and twenty hours in red channel.
(§8) In vitro cellular internalization of dg-IgA with AGN03A.
(§9) HEK293 cells transfected with ASGPR1 were used to measure endocytosis of 1 μg/mL dg-IgA and total IgA conjugated to Alexa Fluor 594. MFI=mean fluorescence intensity, S/N=signal-to-noise ratio.

In assay [2] the test system is total IgA conjugated to Alexa Fluor 594. In words: ASGPR-dependent uptake assay (total IgA endocytosis) in HEK293 (+ASGPR) cells. It is filed as cell-based, human. How it is done:
as §1, §2, §3, §4, §5, §6, §7, §8, §9

Another assay addresses T2, exogenous dg-IgA (UniProt P01876+P34927).
T2 construct: prepared from pooled human serum IgA in three enzymatic steps; from tissue; host or cells: pooled human serum IgA, deglycosylated; injected i.v. into wild-type mice
In words: Degradation (clearance) of exogenous dg-IgA in mice. As to conditions: wild-type mice. It is filed as in vivo. The method, then: FIGS. 21 and 22 are line graphs showing the results of the administration of agent to mice. […] The dosage was AGN03A intravenous, 200 μg/mouse=8 mpk dg-IgA intravenous, 100 μg=4 mpk (five times higher than the patient's median galactose-deficient IgA1 level).
AGN03A achieves robust degradation of exogenous dg-IgA in mice. […] Results were consistent with the AGN03A mechanism of action. AGN03A depleted exogenous dg-IgA in wild-type mice to 58% of the area under the curve of control at a 2:1 (drug: target) ratio after sequential intravenous (IV) administration. […] AGN03A rapidly and robustly degrades an enzymatically deglycosylated form of human IgA administered to mice.

The mark [3] stands for this setting: Assay #1, 1 μg/ml dg-IgA (A594).
[4] abbreviates: Assay #2, 1 μg/ml dg-IgA (A594).
[5] abbreviates: Assay #3, 1 μg/ml dg-IgA (A594).

T1 sequence (P01876 1-353 isoform P01876-1): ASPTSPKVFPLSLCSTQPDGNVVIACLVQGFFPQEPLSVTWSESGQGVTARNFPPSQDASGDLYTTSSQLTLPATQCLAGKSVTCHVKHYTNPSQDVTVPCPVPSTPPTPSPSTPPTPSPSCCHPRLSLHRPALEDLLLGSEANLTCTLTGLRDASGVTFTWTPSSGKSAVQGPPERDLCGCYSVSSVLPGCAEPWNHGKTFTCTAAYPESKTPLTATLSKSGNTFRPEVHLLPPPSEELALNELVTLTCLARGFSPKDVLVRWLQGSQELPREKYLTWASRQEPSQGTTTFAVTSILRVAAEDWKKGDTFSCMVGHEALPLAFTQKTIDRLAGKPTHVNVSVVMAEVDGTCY
T1 sequence (P07306 whole entry): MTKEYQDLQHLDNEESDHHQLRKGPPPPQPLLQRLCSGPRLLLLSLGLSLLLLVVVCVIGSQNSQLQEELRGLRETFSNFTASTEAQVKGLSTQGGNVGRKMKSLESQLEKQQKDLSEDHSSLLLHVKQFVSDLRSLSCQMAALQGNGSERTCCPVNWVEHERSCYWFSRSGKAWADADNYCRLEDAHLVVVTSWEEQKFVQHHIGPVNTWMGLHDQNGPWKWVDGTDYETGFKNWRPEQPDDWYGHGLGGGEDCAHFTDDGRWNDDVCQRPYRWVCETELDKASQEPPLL
T2 sequence (P01876 1-353 isoform P01876-1): as the sequence (P01876 1-353 isoform P01876-1) above
T2 sequence (P34927 whole entry): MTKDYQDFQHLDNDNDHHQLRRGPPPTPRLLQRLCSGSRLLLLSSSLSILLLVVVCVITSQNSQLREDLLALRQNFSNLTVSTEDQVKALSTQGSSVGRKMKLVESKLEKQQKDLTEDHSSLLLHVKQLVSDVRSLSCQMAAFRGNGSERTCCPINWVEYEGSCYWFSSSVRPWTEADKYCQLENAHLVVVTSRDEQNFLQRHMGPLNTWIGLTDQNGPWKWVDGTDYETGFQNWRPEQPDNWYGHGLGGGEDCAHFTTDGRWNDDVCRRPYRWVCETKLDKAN
T2 sequence (P24721 whole entry partner): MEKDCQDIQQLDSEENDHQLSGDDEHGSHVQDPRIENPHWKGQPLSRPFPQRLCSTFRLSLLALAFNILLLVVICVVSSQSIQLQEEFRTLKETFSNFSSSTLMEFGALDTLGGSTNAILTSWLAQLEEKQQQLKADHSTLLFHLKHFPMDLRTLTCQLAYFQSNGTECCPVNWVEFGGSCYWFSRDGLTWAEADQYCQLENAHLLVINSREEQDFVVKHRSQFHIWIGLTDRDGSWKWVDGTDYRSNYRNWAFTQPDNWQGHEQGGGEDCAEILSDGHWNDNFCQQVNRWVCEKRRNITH

B1: ABT030 (antibody)
heavy: ELQLQESGPGLVKPSQSLSLTCSVTGYSIRSNYWGWIRKFPGNKMEWMGYITYSGGTYYNPSLKSRISITRDTSKNQFFLQLTSVTTEDTATYYCTRWGDWYFDFWGPGTKVTVSPASTKGPSVFPLAPSSKSTSGGTAALGCLVKDYFPEPVTVSWNSGALTSGVHTFPAVLQSSGLYSLSSVVTVPSSSLGTQTYICNVNHKPSNTKVDKKV[letters of human IgG1 Fc with changes not shown]
light: DVVLTQTPPPLSVAIGQSVSISCKSSQSLVHTDGKTYLHWLLQSPGQSPKLLIYQVSNLGSGVPDRFSGTGSQKDFTLKISRVEAEDLGVYYCVQATHFPLTFGIGTKLELQRTVAAPSVFIFPPSDEQLKSGTASVVCLLNNFYPREAKVQWKVDNALQSGNSQESVTEQDSKDSTYSLSSTLTLSKADYEKHKVYACEVTHQGLSSPVTKSFNRGEC
Turning to B1, the “High MFI” value in assay [1] (setting [3]) amounted to 429.9; in assay [1] (setting [4]), 444.1; in assay [1] (setting [5]), 453.6; in assay [2] (Assay #1, 1 μg/ml IgA (A594)) it was 240.3; in assay [2] (Assay #2, 1 μg/ml IgA (A594)), 198.3; in assay [2] (Assay #3, 1 μg/ml IgA (A594)), 196.2. Moreover, the Z prime is on record as −1.43 in assay [1] (setting [3]), −1.57 in assay [1] (setting [4]) and −1.86 in assay [1] (setting [5]). For the same molecule, the “effect on degradation of exogenous dg-IgA” value with exogenous dg-IgA was “did not affect the degradation of exogenous dg-IgA”.
